Laboratory results: the supplement of paper PMC3334620
The full ranking holds about 33,000 sequences; the median of “E-score (-0.5 to 0.5)” is about -0.054, and the highest 2% start at about 0.35. This is one part of the list.

What follows are sequences tested against T1, Stb5 (UniProt P38699) (assay: PBM E-score (8-mer binding enrichment) (E-score (-0.5 to 0.5)); higher = stronger / more preferred TF binding; most listed sequences are background and not binding sites). Conditions: protein concentration: 200 nM; construct: GST-full length.
T1 sequence: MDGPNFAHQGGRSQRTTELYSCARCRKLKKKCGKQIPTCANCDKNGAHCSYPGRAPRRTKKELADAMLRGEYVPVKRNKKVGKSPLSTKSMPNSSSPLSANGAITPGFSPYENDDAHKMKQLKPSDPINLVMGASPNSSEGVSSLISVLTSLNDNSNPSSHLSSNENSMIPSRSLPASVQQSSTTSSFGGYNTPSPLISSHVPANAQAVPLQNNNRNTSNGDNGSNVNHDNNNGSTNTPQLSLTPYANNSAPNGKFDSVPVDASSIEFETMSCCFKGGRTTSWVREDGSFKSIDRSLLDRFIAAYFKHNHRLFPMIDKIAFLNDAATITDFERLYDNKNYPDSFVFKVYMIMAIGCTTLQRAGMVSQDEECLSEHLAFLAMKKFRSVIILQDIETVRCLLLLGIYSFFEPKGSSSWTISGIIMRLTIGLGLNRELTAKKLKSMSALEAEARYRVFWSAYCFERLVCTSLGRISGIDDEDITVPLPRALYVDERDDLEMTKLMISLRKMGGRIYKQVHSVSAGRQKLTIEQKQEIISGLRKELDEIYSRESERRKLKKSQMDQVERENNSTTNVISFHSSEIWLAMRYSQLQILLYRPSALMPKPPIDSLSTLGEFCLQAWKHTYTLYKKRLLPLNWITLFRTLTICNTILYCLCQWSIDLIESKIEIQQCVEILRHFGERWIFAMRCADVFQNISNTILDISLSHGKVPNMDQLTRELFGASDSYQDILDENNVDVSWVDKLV
How it was run: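 Yeast transcription factors, full-length or as DNA-binding domains, were expressed with a GST tag using PURExpress in vitro transcription/translation. At about 100-200 nM they were applied to universal all-10-mer Agilent arrays, double-stranded by primer extension on fresh or once-stripped slides. Fluorescent anti-GST detected bound protein, and masliner normalised the scans. E-scores for ungapped eight-base words, pooled with reverse complements, came from the Universal PBM Analysis Suite.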
In the case of ACTTTGCC, the “PBM E-score” value is reported as -0.0473. AGTGACGG was tested, and the “PBM E-score” value was 0.231. In the case of ATTGGACG, the “PBM E-score” value is reported as -0.107. For GTATATAA, the “PBM E-score” value was -0.0409. In the case of AGAGAAAA, the “PBM E-score” value is reported as -0.0123. In the case of CCCTTTGC, the “PBM E-score” value is reported as -0.017. With ATTTCGGC the “PBM E-score” value was 0.117. For CAGCTGCC, the “PBM E-score” value was -0.0121. In the case of AGTGTTTA, the “PBM E-score” value is reported as -0.0504. AGCCAAGA was tested, and the “PBM E-score” value was -0.223. For ATCTAGTC, the “PBM E-score” value was 0.0386. For CGTCCTCC, the “PBM E-score” value was 0.0156. In the case of AGCTAAAC, the “PBM E-score” value is reported as -0.0545. CGTTATGA was tested, and the “PBM E-score” value was 0.17. With AAAACTGT the “PBM E-score” value was -0.0231. For AAACTTAC, the “PBM E-score” value was -0.211. In the case of AGAGTCGA, the “PBM E-score” value is reported as -0.174. CTGACGAA was tested, and the “PBM E-score” value was -0.0766. GACGCTAA was tested, and the “PBM E-score” value was -0.0498. For GCACTGCA, the “PBM E-score” value was -0.211. In the case of ATGGGATC, the “PBM E-score” value is reported as -0.119. CCCCACCA was tested, and the “PBM E-score” value was -0.183. For ACGGTCCC, the “PBM E-score” value was 0.168. AGCAAACC was tested, and the “PBM E-score” value was -0.183. For CGGTCACG, the “PBM E-score” value was 0.149. In the case of GCCGGCTA, the “PBM E-score” value is reported as 0.182. With GGTATTCA the “PBM E-score” value was -0.0311. With AGCACTCC the “PBM E-score” value was -0.123. With CACCTGTC the “PBM E-score” value was 0.14. For ACAGGGCA, the “PBM E-score” value was -0.142. GTCTTATA was tested, and the “PBM E-score” value was 0.0873. For CAGATAAG, the “PBM E-score” value was -0.0793. GCGCTGCA was tested, and the “PBM E-score” value was 0.0911. GTCCCGCA was tested, and the “PBM E-score” value was 0.164. CTGGAACA was tested, and the “PBM E-score” value was -0.317. For CGCGCTGC, the “PBM E-score” value was 0.0623. CCCGCTGC was tested, and the “PBM E-score” value was 0.209. For AGTCACTC, the “PBM E-score” value was -0.186. In the case of AGTTGATA, the “PBM E-score” value is reported as -0.0939. For GACTCACA, the “PBM E-score” value was -0.22. With CTGAACAG the “PBM E-score” value was -0.2. CTCGATCA was tested, and the “PBM E-score” value was -0.259. With ACGCGAAA the “PBM E-score” value was -0.209. In the case of ATTAGGTG, the “PBM E-score” value is reported as -0.0718. With ACAGCTAA the “PBM E-score” value was -0.0946. ACCTGGTA was tested, and the “PBM E-score” value was -0.271. For ATCATTAG, the “PBM E-score” value was -0.142. GAACAAGC was tested, and the “PBM E-score” value was -0.0242. ATCATACA was tested, and the “PBM E-score” value was -0.179. GAAAAGCC was tested, and the “PBM E-score” value was 0.208. With CGCGTGTC the “PBM E-score” value was 0.0856. TATGGGCA was tested, and the “PBM E-score” value was -0.206. With GCGGCCCC the “PBM E-score” value was 0.212. With TGTTTAAA the “PBM E-score” value was -0.00468. With ATCTGGAC the “PBM E-score” value was -0.0763. For AGGTCAGG, the “PBM E-score” value was -0.141. In the case of ATTTTAGC, the “PBM E-score” value is reported as 0.0866. With GGATTTCA the “PBM E-score” value was 0.173. CAGATCGC was tested, and the “PBM E-score” value was -0.0396. For ATATCCCC, the “PBM E-score” value was 0.395. GGGTCACC was tested, and the “PBM E-score” value was -0.211. For AGCGGGAG, the “PBM E-score” value was 0.0448. With AGGGCTAC the “PBM E-score” value was -0.283. For AGCAGCTC, the “PBM E-score” value was -0.265. In the case of ATGGGTCC, the “PBM E-score” value is reported as 0.271. With CTTGGTCA the “PBM E-score” value was -0.157. In the case of GCACGCTA, the “PBM E-score” value is reported as -0.105. For GCGGAAGA, the “PBM E-score” value was 0.0945. For CGCTCATC, the “PBM E-score” value was 0.0962. With TAAGAGCA the “PBM E-score” value was -0.164. GCTTAGAC was tested, and the “PBM E-score” value was -0.00066. With ATGAGTGG the “PBM E-score” value was -0.101. CCAAGGCC was tested, and the “PBM E-score” value was 0.0375. In the case of GCGAATCA, the “PBM E-score” value is reported as -0.0976. In the case of CCCCTGGA, the “PBM E-score” value is reported as -0.155. ACGCGCAT was tested, and the “PBM E-score” value was -0.217. CAATAAAG was tested, and the “PBM E-score” value was 0.126. For CACGAACA, the “PBM E-score” value was -0.1. For GCGCTCCC, the “PBM E-score” value was -0.119. In the case of CGCCGGGA, the “PBM E-score” value is reported as 0.236. For CATGTATA, the “PBM E-score” value was -0.127. TCCTGGCA was tested, and the “PBM E-score” value was -0.145. In the case of ATGTTTGA, the “PBM E-score” value is reported as -0.0704. With ATAACGTA the “PBM E-score” value was 0.0409. In the case of ATGCTGTG, the “PBM E-score” value is reported as -0.178. ACCAACCG was tested, and the “PBM E-score” value was -0.00342.
